For experiment [1], the target named is T1, iASPP (endogenous, HaCaT) (human (endogenous in HaCaT)) (UniProt Q8WUF5).
T1 sequence: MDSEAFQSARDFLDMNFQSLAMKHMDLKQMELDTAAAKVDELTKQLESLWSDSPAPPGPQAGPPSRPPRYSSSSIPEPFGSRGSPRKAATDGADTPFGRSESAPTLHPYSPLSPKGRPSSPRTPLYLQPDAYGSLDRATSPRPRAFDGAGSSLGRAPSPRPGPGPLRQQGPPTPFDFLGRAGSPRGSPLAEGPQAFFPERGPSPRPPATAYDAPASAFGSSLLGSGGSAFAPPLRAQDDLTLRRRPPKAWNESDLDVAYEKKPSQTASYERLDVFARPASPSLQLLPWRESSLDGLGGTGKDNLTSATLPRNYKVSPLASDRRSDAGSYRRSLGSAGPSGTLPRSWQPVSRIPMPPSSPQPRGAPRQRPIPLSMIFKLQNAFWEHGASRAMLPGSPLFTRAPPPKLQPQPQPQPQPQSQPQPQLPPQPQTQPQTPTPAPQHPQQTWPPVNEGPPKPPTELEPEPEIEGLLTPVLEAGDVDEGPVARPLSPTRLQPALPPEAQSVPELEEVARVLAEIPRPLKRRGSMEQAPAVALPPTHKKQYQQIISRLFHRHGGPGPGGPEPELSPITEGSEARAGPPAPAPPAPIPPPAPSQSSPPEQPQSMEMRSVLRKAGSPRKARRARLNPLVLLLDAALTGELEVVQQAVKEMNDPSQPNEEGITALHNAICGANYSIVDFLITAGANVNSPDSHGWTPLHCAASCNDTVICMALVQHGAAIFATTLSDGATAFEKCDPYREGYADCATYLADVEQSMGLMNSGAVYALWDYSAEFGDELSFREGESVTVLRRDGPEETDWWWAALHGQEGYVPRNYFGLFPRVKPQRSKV
As to the kind of experiment: co-IP; nuclear fraction lysates from subcellular fractionation of HaCaT and IMOK keratinocytes; anti-iASPP LX128.5 or LX49.3; endogenous proteins.

Experiment [2] addresses T1, iASPP (endogenous, HaCaT) (human (endogenous in HaCaT)). The experiment can be described thus: co-IP; unfractionated lysates of untreated HaCaT cells (also UV-irradiated cells pre-treated with JNK inhibitor); anti-iASPP LX49.3 or LX128.5, or anti-JunD, with protein G agarose overnight at 4°C; endogenous proteins.
Experiment [3] has the same target. As to the kind of experiment: condition: only UV-treated HaCaT cells (also with DMSO or p38 inhibitor); co-IP; lysates of UV-irradiated HaCaT cells (also with DMSO or p38 inhibitor); anti-iASPP LX49.3 or LX128.5, or anti-JunD, with protein G agarose overnight at 4°C; endogenous proteins.
The target of experiment [4] is T2, JunD (endogenous, HaCaT) (human (endogenous in HaCaT)) (UniProt P17535).
T2 sequence: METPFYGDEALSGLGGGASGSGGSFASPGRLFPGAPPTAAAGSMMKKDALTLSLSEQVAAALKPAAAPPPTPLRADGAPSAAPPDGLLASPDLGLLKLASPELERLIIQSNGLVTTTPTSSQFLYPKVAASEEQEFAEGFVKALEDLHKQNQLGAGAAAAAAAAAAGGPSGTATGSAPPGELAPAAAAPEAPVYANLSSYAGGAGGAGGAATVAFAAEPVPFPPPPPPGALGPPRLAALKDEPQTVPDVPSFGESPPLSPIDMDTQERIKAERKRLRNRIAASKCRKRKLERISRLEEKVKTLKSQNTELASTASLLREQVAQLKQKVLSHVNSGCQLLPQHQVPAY
The experiment can be described thus: co-IP; lysates of UV-irradiated HaCaT cells (also with DMSO or p38 inhibitor); anti-iASPP LX49.3 or LX128.5, or anti-JunD, with protein G agarose overnight at 4°C; endogenous proteins.

Experiment [5] deals with T2, JunD (endogenous, HaCaT) (human (endogenous in HaCaT)). As to the kind of experiment: co-IP; unfractionated lysates of untreated HaCaT cells (also UV-irradiated cells pre-treated with JNK inhibitor); anti-iASPP LX49.3 or LX128.5, or anti-JunD, with protein G agarose overnight at 4°C; endogenous proteins.
Experiment [6] concerns the target T3, iASPP CTD N813A Y814A (625–828) (UniProt Q8WUF5).
T3 sequence: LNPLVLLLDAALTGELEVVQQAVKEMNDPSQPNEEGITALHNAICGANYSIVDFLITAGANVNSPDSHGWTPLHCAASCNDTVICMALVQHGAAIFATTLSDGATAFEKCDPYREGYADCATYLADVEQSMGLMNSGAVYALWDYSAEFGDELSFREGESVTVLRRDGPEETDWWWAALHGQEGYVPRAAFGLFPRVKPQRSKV
As to the kind of experiment: ITC; VP-ITC; 450 µM peptide (syringe) titrated to 30 µM ASPP family CTD (cell), 25 steps of 10 µL, 12 °C; 25 mM HEPES pH 7.5, 150 mM NaCl, 500 µM TCEP; AB hetero association model (SEDPHAT); both purified. Background: Isothermal titration calorimetry measures the heat released or taken up as one component is titrated into another.

Experiment [7] has as its target T4, ASPP1 CTD (887–1090) (UniProt Q96KQ4).
T4 sequence: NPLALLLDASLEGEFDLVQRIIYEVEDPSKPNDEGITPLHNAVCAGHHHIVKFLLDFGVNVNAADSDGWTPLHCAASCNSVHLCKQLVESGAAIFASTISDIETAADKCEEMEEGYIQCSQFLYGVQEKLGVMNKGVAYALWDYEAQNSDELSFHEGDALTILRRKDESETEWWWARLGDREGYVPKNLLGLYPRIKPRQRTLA
The description is as above.

The target in experiment [8] is T3, iASPP CTD N813A Y814A (625–828). The experiment can be described thus: ITC; VP-ITC; 450 μM peptide titrated to 30 μM ASPP family CTD at 12°C; 25 mM HEPES pH 7.5, 150 mM NaCl, 500 μM TCEP; AB hetero association model; both purified.
Experiment [9] concerns the target T4, ASPP1 CTD (887–1090). The description is as above.

No constants are given. Whether binding was seen depends on the method and setting. For part of these data: Binding seen in cells or lysates may run through a third protein. Some binding calls cover weakened binding; strength is not graded here.

B1: JunD (endogenous, HaCaT) (protein, UniProt P17535 1-347)
chain: METPFYGDEALSGLGGGASGSGGSFASPGRLFPGAPPTAAAGSMMKKDALTLSLSEQVAAALKPAAAPPPTPLRADGAPSAAPPDGLLASPDLGLLKLASPELERLIIQSNGLVTTTPTSSQFLYPKVAASEEQEFAEGFVKALEDLHKQNQLGAGAAAAAAAAAAGGPSGTATGSAPPGELAPAAAAPEAPVYANLSSYAGGAGGAGGAATVAFAAEPVPFPPPPPPGALGPPRLAALKDEPQTVPDVPSFGESPPLSPIDMDTQERIKAERKRLRNRIAASKCRKRKLERISRLEEKVKTLKSQNTELASTASLLREQVAQLKQKVLSHVNSGCQLLPQHQVPAY
In the case of B1, the binding entry is reported as “binds” in experiment [1], “binds” in experiment [2] and “no binding” in experiment [3].

B2: iASPP (endogenous, HaCaT) (protein, UniProt Q8WUF5 1-828)
chain: MDSEAFQSARDFLDMNFQSLAMKHMDLKQMELDTAAAKVDELTKQLESLWSDSPAPPGPQAGPPSRPPRYSSSSIPEPFGSRGSPRKAATDGADTPFGRSESAPTLHPYSPLSPKGRPSSPRTPLYLQPDAYGSLDRATSPRPRAFDGAGSSLGRAPSPRPGPGPLRQQGPPTPFDFLGRAGSPRGSPLAEGPQAFFPERGPSPRPPATAYDAPASAFGSSLLGSGGSAFAPPLRAQDDLTLRRRPPKAWNESDLDVAYEKKPSQTASYERLDVFARPASPSLQLLPWRESSLDGLGGTGKDNLTSATLPRNYKVSPLASDRRSDAGSYRRSLGSAGPSGTLPRSWQPVSRIPMPPSSPQPRGAPRQRPIPLSMIFKLQNAFWEHGASRAMLPGSPLFTRAPPPKLQPQPQPQPQPQSQPQPQLPPQPQTQPQTPTPAPQHPQQTWPPVNEGPPKPPTELEPEPEIEGLLTPVLEAGDVDEGPVARPLSPTRLQPALPPEAQSVPELEEVARVLAEIPRPLKRRGSMEQAPAVALPPTHKKQYQQIISRLFHRHGGPGPGGPEPELSPITEGSEARAGPPAPAPPAPIPPPAPSQSSPPEQPQSMEMRSVLRKAGSPRKARRARLNPLVLLLDAALTGELEVVQQAVKEMNDPSQPNEEGITALHNAICGANYSIVDFLITAGANVNSPDSHGWTPLHCAASCNDTVICMALVQHGAAIFATTLSDGATAFEKCDPYREGYADCATYLADVEQSMGLMNSGAVYALWDYSAEFGDELSFREGESVTVLRRDGPEETDWWWAALHGQEGYVPRNYFGLFPRVKPQRSKV
As to B2, the binding result in [4] is “no binding (condition: UV-treated HaCaT cells)”; in experiment [5], “binds”.
For the molecule WLKPAAAPPPTPLRADGAPSA [JunD peptide (…)], the binding entry was “no binding (tested: 450 µM peptide titrated to 30 µM CTD)” in experiment [6], “no binding (tested: 450 µM peptide titrated to 30 µM CTD)” with ASPP1 CTD (887–1090) [7], “no binding (tested: 450 μM peptide titrated to 30 μM CTD)” in experiment [8] and “no binding (tested: 450 μM peptide titrated to 30 μM CTD)” with ASPP1 CTD (887–1090) [9].
